Results published in patent US10961286B2, “Nucleic acids, vectors, host cells, and methods for recombinantly producing water-soluble membrane proteins” (CORNELL UNIVERSITY, priority 2014, dated 2021).

Experimental: E. coli strain DH5α was used for cloning while protein expression was carried out in E. coli strain BL21(DE3). Overnight cultures were diluted 1:500 in terrific broth (TB) supplemented with the appropriate antibiotic (50 μg mL^−1 kanamycin or 100 μg mL^−1 ampicillin) and grown at 30° C. until culture optical density (OD600) reached ˜1.0. The temperature was then lowered to 16° C. and protein expression was induced with isopropyl-β-D-thiogalactoside (IPTG) to a final concentration of 0.1 mM. Cells were collected 20 h post induction.
Following protein expression, 20 mL of cells expressing IMP fusions were harvested. Cultures were normalized by OD600 and culture aliquots were pelleted via centrifugation for 10 min at 4° C. and 4,000×g. Cells were then resuspended in lysis buffer containing 30 mM Tris pH 8.0, 500 mM NaCl, and 40 mM imidazole pH 8.0 and lysed using a homogenizer (Avestin Emulsiflex C5). To separate soluble proteins from membranes, the homogenate was ultracentrifuged (100,000×g) for 1 h at 4° C. and the supernatant was collected as the soluble fraction. […] IMPs in the various fractions were separated by SDS-PAGE using 10% polyacrylamide gels (Bio-Rad) and subsequently detected by Western blotting according to standard protocols using a 1:5,000-diluted monoclonal anti-6×-His HRP-conjugated antibody (Abcam).

B1: EmrE: E. coli ethidium multidrug resistance protein E, 110 amino acids, expressed alone (protein, UniProt P23895 1-110, looked up)
Multidrug transporter EmrE: MNPYIYLGGAILAEVIGTTLMKFSEGFTRLWPSVGTIICYCASFWLLAQTLAYIPTGIAYAIWSGVGIVLISLLSWGFFGQRLDLPAIIGMMLICAGVLIINLLSRSTPH
partitioning to soluble, detergent soluble and insoluble fractions of the lysate: detected in the detergent soluble and insoluble fractions only
